Assay results: paper PMC12136788
This is one part of the list.

T1: UNK ZnF1-6 (called full-length) (human, UniProt Q9C0B0 30-357)
T1 sequence: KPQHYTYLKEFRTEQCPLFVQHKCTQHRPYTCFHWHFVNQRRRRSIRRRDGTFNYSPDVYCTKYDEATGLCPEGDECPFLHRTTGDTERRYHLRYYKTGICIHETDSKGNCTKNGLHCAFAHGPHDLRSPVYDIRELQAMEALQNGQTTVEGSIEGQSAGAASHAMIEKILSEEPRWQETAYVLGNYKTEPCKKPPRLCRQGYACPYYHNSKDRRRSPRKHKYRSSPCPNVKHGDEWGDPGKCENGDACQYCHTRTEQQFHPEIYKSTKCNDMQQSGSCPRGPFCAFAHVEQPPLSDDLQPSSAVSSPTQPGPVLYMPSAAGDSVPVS

B1: chr2:182778012:182778113:+|3pUTR|ENSG00000077232|msi1|FALSE|unique (ssRNA)
RNA: GGGAGUUCUACAGUCCGACGAUCUAAAGAUAUAUGUGUUCAUGUAUUUUCUGAAAUUGCUUUCAUAGAAAUUUUCCCACUGAUAGUUGAUUUUUGAGGCAUCUAAUAUUUACAUAUUUGCCUUCUGAACUUUGUUUUGACCUGCAACAGAGGAUUGAGCAUCA
B2: ENSG00000124766:be:win_3101|3pUTR|ENSG00000124766|bound_else_gene|NA|bound_elsewhere_windowed (ssRNA)
RNA: GGGAGUUCUACAGUCCGACGAUCACACUUUUAAAAAACAAAAAAAGACAAGAGAGAUGAAAACGUUUGAUUAUUUUCUCAGUGUAUUUUUGUAAAAAAUAUAUAAAGGGGGUGUUAAUCGGUGUAAAUCGCUGUUUGGAUUUCCAACAGAGGAUUGAGCAUCA
B3: chr11:11963431:11963477:-|3pUTR|ENSG00000050165|msi1_unk|total|mutant (ssRNA)
RNA: GGGAGUUCUACAGUCCGACGAUCUUGACACUGUCCCUCUUUGGCAGUUGCAUCCGUAACUUUGAAAGGUAUAUGACUGAGCGCCGCAUACAGGUUAACCUGCAGAAACAGUACUCCGGUAAUUGCCGGGCGAGGAUUAUAAAUCAACAGAGGAUUGAGCAUCA
B4: chr19:6729913:6730384:-|three_prime_utr|ENSG00000125734|control|control|control (ssRNA)
RNA: GGGAGUUCUACAGUCCGACGAUCUACGCCGUUGUCUUGCCUUUUUGGGGGUUGGGGUCUACACGGAGGUUGUGUUUACAAUGUAGAAACCUGUUUUCGCUGUGUGUGGCGGGGGCGCGGGCACAGGGUCCGUGUCUUUGUAUACAACAGAGGAUUGAGCAUCA
B5: chrX:135759845:135760351:-|three_prime_utr|ENSG00000269096|control|control|control (ssRNA)
RNA: GGGAGUUCUACAGUCCGACGAUCGUUUUCUACAAUGGAGCAGGAUAUUGCUGAAGUCUCCUGGCAUAUGUUACCGAAUCAAAUAGCCUUCCAGAGGCUAAGAAAUUUCUGUUAGUAAAAGAUGUUCUUUUUCCCAAAGCAUUUCAACAGAGGAUUGAGCAUCA
B6: chr7:16784014:16784129:+|3pUTR|ENSG00000106537|msi1_unk|total|mutant (ssRNA)
RNA: GGGAGUUCUACAGUCCGACGAUCGAUAAUUUACUUGCCGUCUUUUAUGAUUACACCAAUGUAUUCCCGAAACCGUUAUGUCUCCGGAAAUUGUGGUUUAAUUUUUGACUUUUACAGGUAAGUGCAAAGGAGAAGUGGUUUCAUCAACAGAGGAUUGAGCAUCA
B7: chr8:6757792:6757893:+|3pUTR|ENSG00000155189|msi1|total|mutant (ssRNA)
RNA: GGGAGUUCUACAGUCCGACGAUCAUUUAUUACAACUUGACAGCUCCAAGCUCUUAUUACUAAAGUAUUCCGUAUCUUGCAGCCCGUUAAUAUUUCAUCUUUUGCUUAUUUCUACAAGUCAGUGAAAUAAAUUGUAUUCCGGAACAACAGAGGAUUGAGCAUCA
B8: chr19:12699869:12699961:-|3pUTR|ENSG00000105576|msi1_unk|total|mutant (ssRNA)
RNA: GGGAGUUCUACAGUCCGACGAUCGAGGGUGGGGGUGCCGUUACUUCCCAGUUGGCCAGAAAACUGGGCCUUGCAGACCCCCUCCGCAUUUUUUCCCUUUUUUUCCUUCCCUGCUUUCUACUUCUUUGGGGAGCCCCUUGUGUUCAACAGAGGAUUGAGCAUCA
B9: chr3:14145182:14145283:-|3pUTR|ENSG00000154767|unk|total|mutant (ssRNA)
RNA: GGGAGUUCUACAGUCCGACGAUCUGAAAAUUAAGGAAAUGUCCGUAAAACCGAUGAGUGUUAAACCCGAUUGUAUUCAUUACCCGAUAAAAUGUAUAAAGCUCUCUGUACUAAGGAGAAAUGACUUUUAUAACAUUUUGAGAACAACAGAGGAUUGAGCAUCA
B10: chr6:36925625:36925726:+|3pUTR|ENSG00000198663|msi1|FALSE|unique (ssRNA)
RNA: GGGAGUUCUACAGUCCGACGAUCACUUCUCAAGUUAAUUUUGAUAAGCAGAAUCUACUACUGGCCAGAGCGACAGGAGUGGCUAGGGGUUGCCAGCCAGUCCCUUUCUGAUGAUCAAGGCCCUGCACAGCAGGAUGCCACAGGCAACAGAGGAUUGAGCAUCA
B11: chr1:246907611:246907713:-|CDS|ENSG00000153207|unk|total|mutant (ssRNA)
RNA: GGGAGUUCUACAGUCCGACGAUCUGAAGUACCACACAUCCGAGAAAGUGUAAUGAGACAAGGGCGCCAUCUGUGUUUCCAGUCCGUAAGUCCAACAGGAACAGCUGUUUCAACUCUCCGUUACAUAAGCAGGACAAAUCAGCUCAACAGAGGAUUGAGCAUCA
B12: ENSG00000119689:stop:overlap|stop_codon|ENSG00000119689|stop_codon|NA|stop_codon (ssRNA)
RNA: GGGAGUUCUACAGUCCGACGAUCCUUUCCUCCGCAAAAUCAAGGCAGCGGUAGAGGAUCCCAGAGUCCUCCUCCUGGAUCUUUAGGAGGAACCCACACACCCUACAAGUUGAUCAUGCAGGAACUGAAAACCAGUCUUCUCCCCAACAGAGGAUUGAGCAUCA
B13: chr12:64128047:64128160:+|CDS|ENSG00000196935|unk|FALSE|unique (ssRNA)
RNA: GGGAGUUCUACAGUCCGACGAUCGGCAGCCUGACCAACAUCAGCCGGCACGACUCCCUCAAGAAGAUCGACAGCCCUCCCAUUAGAAGGUCCACGUCAUCAGGGCAAUACACGGGCUUCAAUGACCACAAGCCACUGGACCCACAACAGAGGAUUGAGCAUCA
B14: chr9:101390727:101390839:-|CDS|ENSG00000136897|unk|FALSE|unique (ssRNA)
RNA: GGGAGUUCUACAGUCCGACGAUCCAGAAAAGAGAAAGAGCCAGUGGUUGUUGAGACAGUAGAAGAGAAAAAGGAACCUAUCCUAGUGUGUCCACCUUUACGAAGCCGAGCAUACACACCACCUGAAGAUCUCCAGAGUCGUUUCAACAGAGGAUUGAGCAUCA
B15: chr3:30797676:30800881:-|three_prime_utr|ENSG00000144644|control|control|control (ssRNA)
RNA: GGGAGUUCUACAGUCCGACGAUCUGUGUGUGUGUGUGUGUGUGUGUGUGUGUGUGUGUGUGUGUGUCUAUCUGUGUCUGUAAUAGGAAGACCUAAGGAAAGUAAUACUUGAAAUGUGUUGCAAGUACAUGUUUUCAUUUGUGCCAACAGAGGAUUGAGCAUCA
B16: ENSG00000107863:be:win_751|CDS|ENSG00000107863|bound_else_gene|NA|bound_elsewhere_windowed (ssRNA)
RNA: GGGAGUUCUACAGUCCGACGAUCCCUCCAUCACCAACAGAUGUUGCAAAAUCAAACACAGCAGUGUGUGUUUGCAAUGAAAGUGUAAGGACUGUCAUUGUGCCUUCUGAGAAGGUUGUAGAUUUGUUAUCCAAUAGAAACAACCAACAGAGGAUUGAGCAUCA
B17: ENSG00000070961:be:win_4001|3pUTR|ENSG00000070961|bound_else_gene|NA|bound_elsewhere_windowed (ssRNA)
RNA: GGGAGUUCUACAGUCCGACGAUCAGUAAAACUGGGCAAGACAAAGAGCCCUGGAUCGUUGAAUUGAUAGUUUAAUUUCUGCUGUUGGCUGUUAAUAAUUUGGAUUAUUUAUGUUUAUAAAUGAUACAGAUCUGUUUACAAGGUCAACAGAGGAUUGAGCAUCA
B18: chr5:82277714:82277885:-|CDS|ENSG00000186468|unk|FALSE|unique (ssRNA)
RNA: GGGAGUUCUACAGUCCGACGAUCAACUAAAAUAUUUAAUUUUUAGGCAAGUGUCGUGGACUUCGUACUGCUAGGAAGCUCCGUAGUCACCGACGAGACCAGAAGUGGCAUGAUAAACAGUAUAAGAAAGCUCAUUUGGGCACACAACAGAGGAUUGAGCAUCA
B19: chr10:116062369:116062470:-|3pUTR|ENSG00000151892|msi1|FALSE|unique (ssRNA)
RNA: GGGAGUUCUACAGUCCGACGAUCCUUUUUUCACUUCAAAAUGUUUUCAAGGGAAAUUCAGCAGACACCCAACUGUAUUUAAUUAGUGAAAAGAUCUAUAAAGACUCUUACUUUGAAUAAACACAUUAAGUAAGUGUGUCAAAACAACAGAGGAUUGAGCAUCA
B20: chr15:85581792:85581893:+|CDS|ENSG00000170776|unk|total|mutant (ssRNA)
RNA: GGGAGUUCUACAGUCCGACGAUCUGCCCAGGACGCACCUCUGCCUAAGGGGGCAGACUUGACCGAGGAGGCUGCCAGCCGUACCGUGGAUGCUGUCAUCGAACAAGUCAAGGCCGCUGGAGCACUGCUUACUGAGGGGGAGGCCAACAGAGGAUUGAGCAUCA
B21: ENSG00000136451:be:win_1451|CDS_3pUTR|ENSG00000136451|bound_else_gene|NA|bound_elsewhere_windowed (ssRNA)
RNA: GGGAGUUCUACAGUCCGACGAUCCUCCAAUGAAUCUACCCACACCUAUGACAUUAGCCGCCCCUCUCAAUAUAGCAAUGAGACCUGUAGAGAGCAUGCCUUUCUUGCCCCAAGCUUUGCCUACAUCACCGCCUUGGUAAACAGCAACAGAGGAUUGAGCAUCA
B22: chr12:107752058:107752159:-|CDS|ENSG00000110851|unk|total|mutant (ssRNA)
RNA: GGGAGUUCUACAGUCCGACGAUCUAACUCUAUAAAUGUUGAUGGUAAUACAGCAUUAUCUAUCACCAAUAACCCUUCAGCACCCGAUCCCUAUCAGUCCAAUGGAAAUGUUGGAUCCGAACCAGGCAUUGUUUCAACCGACUCCAACAGAGGAUUGAGCAUCA

These binders were tested against T1, UNK ZnF1-6 (called full-length) (assay: nsRBNS (natural sequence RNA bind-n-seq); RBNS binding buffer (assumed for nsRBNS): 25 mM Tris pH 7.5, 150 mM KCl, 3 mM MgCl2, 0.01% Triton X-100, 500 ug/ml BSA, 20 U/ml SUPERase-In, 4 C; UNK is unkempt and MSI1 is Musashi-1; names of the RNAs are library labels; protein concentration not given here; high values mean tight binding).

| Binder | binding signal |
| --- | --- |
| B1 | 1.31 enrichment R |
| B2 | 0.526 enrichment R |
| B3 | 0.534 enrichment R |
| B4 | 0.957 enrichment R |
| B5 | 0.596 enrichment R |
| B6 | 0.435 enrichment R |
| B7 | 0.493 enrichment R |
| B8 | 0.932 enrichment R |
| B9 | 0.315 enrichment R |
| B10 | 0.709 enrichment R |
| B11 | 0.565 enrichment R |
| B12 | 0.648 enrichment R |
| B13 | 1.28 enrichment R |
| B14 | 0.633 enrichment R |
| B15 | 0.605 enrichment R |
| B16 | 0.398 enrichment R |
| B17 | 0.527 enrichment R |
| B18 | 0.669 enrichment R |
| B19 | 0.471 enrichment R |
| B20 | 0.926 enrichment R |
| B21 | 1.48 enrichment R |
| B22 | 0.504 enrichment R |
